From PubChem BioAssay AID624296 (National Center for Advancing Translational Sciences (NCATS), 2012)
Hit rate of the full screen: of about 350,000 compounds, about 9,900 (2.8%) were called active. The shares of active, inactive and inconclusive entries below differ from those in the screen. Calls come from the whole dose curve; as a rule, active = well fitted activation curve with a large enough effect; inconclusive = small, poorly fitted or top-dose-only effect; inactive = no such curve, though single readings can be large or run the other way. No potency is given beside an inconclusive call; the fits are too rough.

Experiment: A quantitative high throughput screen for small molecules that induce DNA re-replication in MCF 10a normal breast cells. Note: nearly all actives have a fitted effect of over 50% in size.
Settings: MCF 10A DNA re-replication, Hoechst nuclear intensity, 48 h; series mostly up to 46.1 µM
Potency is the fitted concentration of half-maximal effect; tags give direction and shape of the fitted curve.

| Compound | Potency |
| --- | --- |
| CCNC(=O)NC(=O)C(C)OC(=O)c1oc2ccccc2c1CSC1CCCCC1 (configuration not stated) | inactive |
| Cc1nc(Cl)cc(N/N=C/c2ccc(O)cc2O)n1 | inconclusive [activator, partial curve, poor fit] |
| COc1ccc(-c2csc(Nc3cccc(C)n3)n2)cc1C | inconclusive [activator, partial curve, poor fit] |
| CS(=O)(=O)c1ccc(C(=O)Nc2ccc(N3CCOCC3)cc2)c(Cl)c1 | inactive |
| Cc1cc(C)nc(Sc2ccc3nnnn3n2)n1 | inconclusive [activator, single point] |
| CN1CCC(N(C)C(=O)c2ccc(Cl)c(S(=O)(=O)Nc3ccc(Cl)cc3)c2)CC1 | inconclusive [activator, partial curve, poor fit] |
| Cc1ccc(N)cc1O | inconclusive [activator, single point] |
| COC(C(=O)N1CCC(CCC(=O)Nc2ccccc2)CC1)c1ccccc1 (configuration not stated) | inactive |
| C(=N\Nc1nc(-c2ccccc2)cs1)/c1cccnc1 | inactive |
| Cc1ccccc1OCCOc1ccc([N+](=O)[O-])cc1/C=N/n1cnnc1 | inconclusive [activator, single point] |
| Cc1ccc(C)c(OCC(=O)NCC(C)(C)N2CCOCC2)c1 | inconclusive [activator, single point] |
| COc1ccc(CNC(=S)Nc2ccccc2)cc1 | inconclusive [activator, single point] |
| COc1cccc(C(c2c(C)[nH]n(-c3ccccc3)c2=O)c2c(C)[nH]n(-c3ccccc3)c2=O)c1OC | active: 6.51 µM |
| Cc1ccccc1NC(=S)N(Cc1ccco1)C(C)c1ccccn1 (configuration not stated) | inactive |
| O=C(Nc1ccc(Cl)c([N+](=O)[O-])c1)c1ccc2c(c1)OCCO2 | inactive |
| O=C(NCC(c1ccco1)N1CCc2ccccc21)c1cccc([N+](=O)[O-])c1 (configuration not stated) | inconclusive [activator, partial curve, poor fit] |
| Cc1cccc(N=C2NC(=O)/C(=C/c3cn(C)c4ccccc34)S2)c1 | active: 10.3 µM |
| C=CCn1c(-c2ccc(OC)cc2)nc2ccccc21 | inactive |
| COc1ccccc1C(=O)NC(=S)/C=C1/N(C)c2ccccc2C1(C)C | inconclusive [activator, full curve] |
| COc1ccc(-c2nn(-c3ccccc3)cc2C(=O)N2CCOCC2)cc1 | inactive |
| CCOc1ccccc1NC(=S)C(=C([O-])c1ccc2c(c1)OCCO2)[n+]1ccc(CC)cc1 | active: 2.59 µM |
| O=C(CCCOc1ccc(Cl)cc1Cl)N1CCCc2ccccc21 | inconclusive [activator, single point] |
| O=C(O)c1ccc(Nc2nc(-c3cc4ccccc4oc3=O)cs2)cc1O | active: 13 µM |
| CCn1nc(CC(=O)Nc2nnc(CC(=O)N3CCCC3)s2)c2ccccc2c1=O | inconclusive [activator, partial curve, poor fit] |

| Compound | Potency |
| --- | --- |
| O=C(CN1C(=O)/C(=C\c2cccc(Br)c2)Oc2ccccc21)NCCCN1CCOCC1 | active: 2.91 µM |
| CNS(=O)(=O)c1cccc(C(=O)OCc2cc(Cl)cc3c2OCOC3)c1 | inconclusive [activator, single point] |
| c1ccc(COc2ccc(OCCn3cncn3)cc2)cc1 | inactive |
| Cc1nc(Nc2ccc(Cl)cc2)c2oc3ccccc3c2n1 | inconclusive [activator, single point] |
| Cc1cccc(Nc2ccccc2C(=O)NCc2ccco2)c1C | inconclusive [activator, full curve] |
| O=C(NC(=S)Nc1nc(-c2cccc([N+](=O)[O-])c2)cs1)c1cc(Cl)ccc1Cl | inconclusive [activator, partial curve] |
| O=C(CSc1nnc(-c2ccc3c(c2)OCO3)o1)Nc1ncc(Cl)cc1Cl | active: 13 µM |
| Cn1c(=O)n(CC(=O)N2CCN(c3nnc(-c4ccccc4)c4ccccc34)CC2)c2ccccc21 | inactive |
| CCOC(=O)c1[nH]c2ccccc2c1NC(=O)C1CCCC1 | inactive |
| CCOCc1nnc(NC(=O)c2cccc(OC)c2)s1 | inconclusive [activator, single point] |
| CC1=CC(C)(C)N(C(=O)CSc2nncn2C)c2ccccc21 | inconclusive [activator, partial curve, poor fit] |
| N#CC(C(=O)NCCc1ccccc1)c1nc2ccccc2nc1N1CCCCC1 (configuration not stated) | active: 20.6 µM |
| COC(=O)[C@]1(Cc2ccccc2)N[C@H](CN(C)C(=O)Nc2ccc(Cl)cc2)[C@@H]2C(=O)N(Cc3ccccc3)C(=O)[C@@H]21 | inconclusive [activator, single point] |
| CC1CCN(S(=O)(=O)c2ccc(Oc3ccc([N+](=O)[O-])cc3)cc2)CC1 | inconclusive [activator, full curve, poor fit] |
| CCC12OC(=N)C(C#N)(C1C)C(C#N)(C#N)C(c1ccccc1)O2 (configuration not stated) | inconclusive [activator, partial curve, poor fit] |
| COc1cc(NC(=O)c2ccccc2)c(OC)cc1NC(=O)Cc1ccc(C)cc1 | inconclusive [activator, single point] |
| O=C1NC[C@H](Cc2ccccc2)N(C[C@H]2CCCN2C[C@H](Cc2ccccc2)N2C[C@H](Cc3ccccc3)N(CCc3ccccc3)C(=O)C2=O)C1=O | inconclusive [activator, single point] |
| OCCC#Cc1c(-c2ccsc2)sc2ccccc12 | inconclusive [activator, partial curve, poor fit] |
| O=C(O)c1cccc(-n2nnnc2SCc2ccccn2)c1 | inconclusive [activator, single point] |
| CCOC(=O)c1sc(NC(=O)c2ccc(S(=O)(=O)N3CCOCC3)cc2)cc1C | inconclusive [activator, partial curve, poor fit] |
| CN(C)S(=O)(=O)n1cc(/C=C(\NC(=O)c2ccccc2)C(=O)NCCCn2ccnc2)c2ccccc21 | inactive |
| O=C(O)CNC(=O)CC1S/C(=N/N=C2/NC(=O)CS2)NC1=O (configuration not stated) | inconclusive [activator, partial curve, poor fit] |
| CCc1ccc(OCCCC(=O)Nc2ccc(S(=O)(=O)Nc3cc(C)nc(C)n3)cc2)cc1 | inactive |
| Clc1ccc2oc(SCc3cccnc3)nc2c1 | inactive |

| Compound | Potency |
| --- | --- |
| C/C(CC(=O)Nc1cccc(C(F)(F)F)c1)=N\NC(=O)c1ccncc1 | inconclusive [activator, partial curve, poor fit] |
| Cc1ccccc1NC(=O)c1c(C)nn(-c2ccccc2)c1Cl | inconclusive [activator, partial curve] |
| O=C(N/N=C/C(Cl)=C/c1ccccc1)c1cnccn1 | inconclusive [activator, full curve] |
| Cc1nc2ccc(S(=O)(=O)NCC(=O)Nc3ccc(F)cc3)cc2s1 | inactive |
| O=C(NCc1ccccc1)c1c(Cl)nc(Cl)c(Cl)c1Cl | active: 18.4 µM |
| Oc1cc(NCCc2cccnc2)cc2cccnc12 | inconclusive [activator, single point] |
| COc1cccc(-n2nnc3c(=O)n(Cc4cccc(F)c4)cnc32)c1 | inconclusive [activator, single point] |
| Oc1ccccc1/C=N/[n+]1ccccc1 | inactive |
| CCOc1ccccc1C(=O)Nc1ccsc1C(=O)OC | active: 7.31 µM |
| CN1CCN(C(=O)c2cnn3c(C(F)(F)F)cc(-c4ccc5c(c4)OCO5)nc23)CC1 | inconclusive [activator, partial curve] |
| Cc1cc(OCC(=O)Nc2ccc3c(c2)OCCO3)cc(C)c1Cl | inconclusive [activator, single point] |
| CC(=O)Oc1oc(-c2ccccc2)nc1C=Nc1ccc(N(C)C)cc1 | inactive |
| COc1ccc(/C=C/C(=O)c2cccc(-n3cnnn3)c2)cc1O | inactive |
| O=C(NC1CCS(=O)(=O)C1)c1cccc(Cl)c1 (configuration not stated) | inactive |
| CCCCCCCC(=O)N/N=C(/C)c1c(O)cc(C)oc1=O | inactive |
| COCC(C)NCc1ccc(OC)c(Br)c1 (configuration not stated) | inactive |
| O=C(NN=C1CCCCCCCCCCC1)c1cccc(S(=O)(=O)N2CCOCC2)c1 | inconclusive [activator, partial curve, poor fit] |
| CN1CCC(=O)N(CCSc2ccc(Br)cc2)CC1 | inconclusive [activator, partial curve, poor fit] |
| CC(C)(C)OC(=O)N1CCCC(C(=O)Nc2cccc(C(=O)NCc3ccccc3)c2)C1 (configuration not stated) | inconclusive [activator, partial curve, poor fit] |
| Oc1ccc(Cl)cc1/C=C/c1ccc2cccc(O)c2n1 | inconclusive [activator, single point] |
| O=C(Nc1ccc(Cc2nc3ccccc3s2)cc1)c1ccncc1 | inconclusive [activator, partial curve] |
| CCC1(C)Cc2c(sc3nc(NN)n(C)c(=O)c23)CO1 (configuration not stated) | active: 20.6 µM |
| Cc1nc(C(=O)N2CCOCC2)sc1C1(C)CC(c2ccccc2)=NO1 (configuration not stated) | inconclusive [activator, full curve, poor fit] |
| CC(=O)c1cccc(NC(=S)Nc2ccn(Cc3cccc4ccccc34)n2)c1 | inactive |
